Values of other authors, collected in article PMC4759522, “A fragment merging approach towards the development of small molecule inhibitors of Mycobacterium tuberculosis EthR for use as ethionamide boosters” (Organic & Biomolecular Chemistry, 2016).

Test system: M. tuberculosis infected macrophages
Design: method as in PMID 24313835
Details: reported previously; cited from earlier work

O=C(CCC1CCCC1)N1CCCC1 [Compound 1]
ability to boost ethionamide: boost ethionamide
